Assay results as given in article PMC12820563, “FoxP3 forms a head-to-head dimer in vivo and stabilizes its multimerization on adjacent microsatellites”.
The other results are listed elsewhere or left out.

These sequences were tested against T1, MBP-FoxP1dN (Mus musculus, UniProt P58462 326-579) (assay: PD-seq (MBP pull-down with sequencing); 20 mM Tris-HCl pH 7.5, 100 mM NaCl, 1.5 mM MgCl2, 0.4 uM protein, 0.1 uM dsDNA library, 30 min, room temperature, amylose pull-down; high values mean tight binding). Conditions: protein: recombinant; tags: His6-MBP; chain copies: 2; dsDNA, one strand shown.
T1 sequence: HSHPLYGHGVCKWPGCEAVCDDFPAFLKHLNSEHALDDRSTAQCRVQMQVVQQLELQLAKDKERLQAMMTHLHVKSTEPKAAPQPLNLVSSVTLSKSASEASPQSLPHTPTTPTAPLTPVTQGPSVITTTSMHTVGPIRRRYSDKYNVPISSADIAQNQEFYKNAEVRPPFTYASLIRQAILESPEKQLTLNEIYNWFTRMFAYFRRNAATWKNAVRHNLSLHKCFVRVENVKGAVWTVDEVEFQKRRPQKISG
Outline: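 Protein and DNA were mixed at 0.4 µM and 0.1 µM and held for 30 min at room temperature in Tris pH 7.5 buffer with NaCl and MgCl2; the protein was a His6-MBP-tagged, N-terminally truncated mouse FoxP3 or FoxP1 fragment from E. coli, and the DNA a Klenow-filled double-stranded degenerate library. Amylose resin captured the complexes, which were washed three times. Binding is read as reads-per-million enrichment of pull-down versus input after Illumina sequencing, with replicates pooled.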

Sequence	binding signal
GATGATTGTTCTCCCAGCTGATGAATTATCACCGTCGAGTAAACAAATTTTCCTAATCTTTCTGTTCAAGCGCCATCTAC	0.976 RPM ratio (pull-down/input)
GATGATTGTTCTCCCAGCTGATGAATTGCAGGTGTCGAGTAAACAAATTTTCCTAATCTTTCTGTTCAAGCGCCATCTAC	1.06 RPM ratio (pull-down/input)
GATGATTGTTCTCCCAGCTGATGAATTATGTATATCGAGTAAACAAATTTTCCTAATCTTTCTGTTCAAGCGCCATCTAC	1.79 RPM ratio (pull-down/input)
GATGATTGTTCTCCCAGCTGATGAATTCACCCCTTCGAGTAAACAAATTTTCCTAATCTTTCTGTTCAAGCGCCATCTAC	0.782 RPM ratio (pull-down/input)
GATGATTGTTCTCCCAGCTGATGAATTGCCTCGTTCGAGTAAACAAATTTTCCTAATCTTTCTGTTCAAGCGCCATCTAC	1.01 RPM ratio (pull-down/input)
GATGATTGTTCTCCCAGCTGATGAATTTCGATTCTCGAGTAAACAAATTTTCCTAATCTTTCTGTTCAAGCGCCATCTAC	0.862 RPM ratio (pull-down/input)
GATGATTGTTCTCCCAGCTGATGAATTTCGTAATTCGAGTAAACAAATTTTCCTAATCTTTCTGTTCAAGCGCCATCTAC	0.954 RPM ratio (pull-down/input)
GATGATTGTTCTCCCAGCTGATGAATTCGATCCATCGAGTAAACAAATTTTCCTAATCTTTCTGTTCAAGCGCCATCTAC	0.868 RPM ratio (pull-down/input)
GATGATTGTTCTCCCAGCTGATGAATTTCTCCAATCGAGTAAACAAATTTTCCTAATCTTTCTGTTCAAGCGCCATCTAC	1 RPM ratio (pull-down/input)
GATGATTGTTCTCCCAGCTGATGAATTGTCTGAATCGAGTAAACAAATTTTCCTAATCTTTCTGTTCAAGCGCCATCTAC	1.05 RPM ratio (pull-down/input)
GATGATTGTTCTCCCAGCTGATGAATTCTTTTATTCGAGTAAACAAATTTTCCTAATCTTTCTGTTCAAGCGCCATCTAC	1.13 RPM ratio (pull-down/input)
GATGATTGTTCTCCCAGCTGATGAATTAGTTACGTCGAGTAAACAAATTTTCCTAATCTTTCTGTTCAAGCGCCATCTAC	1.06 RPM ratio (pull-down/input)
GATGATTGTTCTCCCAGCTGATGAATTTCGAACATCGAGTAAACAAATTTTCCTAATCTTTCTGTTCAAGCGCCATCTAC	1.02 RPM ratio (pull-down/input)
GATGATTGTTCTCCCAGCTGATGAATTATCATAGTCGAGTAAACAAATTTTCCTAATCTTTCTGTTCAAGCGCCATCTAC	1.06 RPM ratio (pull-down/input)
GATGATTGTTCTCCCAGCTGATGAATTTGTATTTTCGAGTAAACAAATTTTCCTAATCTTTCTGTTCAAGCGCCATCTAC	2.62 RPM ratio (pull-down/input)
GATGATTGTTCTCCCAGCTGATGAATTCTATGATTCGAGTAAACAAATTTTCCTAATCTTTCTGTTCAAGCGCCATCTAC	1.06 RPM ratio (pull-down/input)
GATGATTGTTCTCCCAGCTGATGAATTGACCAGTTCGAGTAAACAAATTTTCCTAATCTTTCTGTTCAAGCGCCATCTAC	0.899 RPM ratio (pull-down/input)
GATGATTGTTCTCCCAGCTGATGAATTGACGAGTTCGAGTAAACAAATTTTCCTAATCTTTCTGTTCAAGCGCCATCTAC	1.04 RPM ratio (pull-down/input)
GATGATTGTTCTCCCAGCTGATGAATTTCAAGGTTCGAGTAAACAAATTTTCCTAATCTTTCTGTTCAAGCGCCATCTAC	0.838 RPM ratio (pull-down/input)
GATGATTGTTCTCCCAGCTGATGAATTTTTTTGATCGAGTAAACAAATTTTCCTAATCTTTCTGTTCAAGCGCCATCTAC	0.955 RPM ratio (pull-down/input)

Sequence	binding signal
GATGATTGTTCTCCCAGCTGATGAATTATTATTATCGAGTAAACAAATTTTCCTAATCTTTCTGTTCAAGCGCCATCTAC	2.52 RPM ratio (pull-down/input)
GATGATTGTTCTCCCAGCTGATGAATTGAACTCCTCGAGTAAACAAATTTTCCTAATCTTTCTGTTCAAGCGCCATCTAC	0.753 RPM ratio (pull-down/input)
GATGATTGTTCTCCCAGCTGATGAATTTAACGTCTCGAGTAAACAAATTTTCCTAATCTTTCTGTTCAAGCGCCATCTAC	0.873 RPM ratio (pull-down/input)
GATGATTGTTCTCCCAGCTGATGAATTAACACTCTCGAGTAAACAAATTTTCCTAATCTTTCTGTTCAAGCGCCATCTAC	1.02 RPM ratio (pull-down/input)
GATGATTGTTCTCCCAGCTGATGAATTTTATAACTCGAGTAAACAAATTTTCCTAATCTTTCTGTTCAAGCGCCATCTAC	0.929 RPM ratio (pull-down/input)
GATGATTGTTCTCCCAGCTGATGAATTGCGAACTTCGAGTAAACAAATTTTCCTAATCTTTCTGTTCAAGCGCCATCTAC	1.04 RPM ratio (pull-down/input)
GATGATTGTTCTCCCAGCTGATGAATTTTTATGTTCGAGTAAACAAATTTTCCTAATCTTTCTGTTCAAGCGCCATCTAC	1.37 RPM ratio (pull-down/input)
GATGATTGTTCTCCCAGCTGATGAATTGTCCATATCGAGTAAACAAATTTTCCTAATCTTTCTGTTCAAGCGCCATCTAC	1.1 RPM ratio (pull-down/input)
GATGATTGTTCTCCCAGCTGATGAATTTATCGACTCGAGTAAACAAATTTTCCTAATCTTTCTGTTCAAGCGCCATCTAC	0.927 RPM ratio (pull-down/input)
GATGATTGTTCTCCCAGCTGATGAATTTAAGATATCGAGTAAACAAATTTTCCTAATCTTTCTGTTCAAGCGCCATCTAC	0.873 RPM ratio (pull-down/input)
GATGATTGTTCTCCCAGCTGATGAATTCAGGCACTCGAGTAAACAAATTTTCCTAATCTTTCTGTTCAAGCGCCATCTAC	0.819 RPM ratio (pull-down/input)
GATGATTGTTCTCCCAGCTGATGAATTTGATCCGTCGAGTAAACAAATTTTCCTAATCTTTCTGTTCAAGCGCCATCTAC	0.802 RPM ratio (pull-down/input)
GATGATTGTTCTCCCAGCTGATGAATTCTTCAATTCGAGTAAACAAATTTTCCTAATCTTTCTGTTCAAGCGCCATCTAC	0.916 RPM ratio (pull-down/input)
GATGATTGTTCTCCCAGCTGATGAATTTCATCGATCGAGTAAACAAATTTTCCTAATCTTTCTGTTCAAGCGCCATCTAC	0.956 RPM ratio (pull-down/input)
GATGATTGTTCTCCCAGCTGATGAATTCACATTGTCGAGTAAACAAATTTTCCTAATCTTTCTGTTCAAGCGCCATCTAC	0.901 RPM ratio (pull-down/input)
GATGATTGTTCTCCCAGCTGATGAATTATAACCATCGAGTAAACAAATTTTCCTAATCTTTCTGTTCAAGCGCCATCTAC	1.04 RPM ratio (pull-down/input)
GATGATTGTTCTCCCAGCTGATGAATTGTTTGGATCGAGTAAACAAATTTTCCTAATCTTTCTGTTCAAGCGCCATCTAC	1.65 RPM ratio (pull-down/input)
GATGATTGTTCTCCCAGCTGATGAATTTTAACAGTCGAGTAAACAAATTTTCCTAATCTTTCTGTTCAAGCGCCATCTAC	0.923 RPM ratio (pull-down/input)
GATGATTGTTCTCCCAGCTGATGAATTTCCCGGGTCGAGTAAACAAATTTTCCTAATCTTTCTGTTCAAGCGCCATCTAC	0.761 RPM ratio (pull-down/input)
GATGATTGTTCTCCCAGCTGATGAATTTGTACAGTCGAGTAAACAAATTTTCCTAATCTTTCTGTTCAAGCGCCATCTAC	1.07 RPM ratio (pull-down/input)
